Assay results taken from PubChem BioAssay AID540317 (National Center for Advancing Translational Sciences (NCATS), 2011).
Among all 390,000 compounds or so, about 2,200 (0.56%) were called active. Inconclusive means that the source gave no clear call. Such entries were picked first, then a sample of the others. The call rests on the fitted dose curve; in most records, active means well fitted inhibition curve with a large enough effect; inconclusive means small, poorly fitted or top-dose-only effect; inactive means no such curve, though single readings can be large or run the other way. A potency beside an inconclusive call is a rough fit, not a confirmed value.

Each molecule was assayed against Chromobox protein homolog 1 (Homo sapiens) (UniProt P83916) (assay: HTS for Inhibitors of HP1-beta Chromodomain Interactions with Methylated Histone Tails). Conditions: AlphaScreen HP1-beta / biotin-H3K9me3 peptide binding; series mostly up to 114 µM.
How it was run: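 HP1-beta protein (50 nM final) preincubated 30 min at room temperature with biotinylated H3(1-18)K9me3 peptide (50 nM) in PBS pH 7.4, 0.01% Tween-20, then compound added for 30 min. AlphaScreen streptavidin donor/nickel chelate acceptor beads (10 ug/mL final), 30 min dark, luminescence read.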
Further: nearly all actives have a fitted effect of over 70% in size.
Potency means the concentration at half of the fitted maximal effect; tags describe the fitted curve by direction and shape.

UniProt P83916, sequence (P83916 whole entry, looked up): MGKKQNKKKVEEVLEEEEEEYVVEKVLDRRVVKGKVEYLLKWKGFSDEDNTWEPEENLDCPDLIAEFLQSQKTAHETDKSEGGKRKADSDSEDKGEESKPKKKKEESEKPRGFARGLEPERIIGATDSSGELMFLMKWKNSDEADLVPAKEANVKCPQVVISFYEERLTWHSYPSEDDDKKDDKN

SMILES | Potency
Cc1cc(C(=O)COC(=O)c2ccco2)c(C)n1Cc1ccco1 | inconclusive: 44.7 µM [inhibitor, partial curve, poor fit]
CCN(CC)c1ccc(/C=C(\C#N)C(N)=S)cc1 | inconclusive: 17.8 µM [inhibitor, full curve]
N#CCC(=O)Nc1ccc(C(=O)OCc2ccccc2Oc2ccccc2)cc1 | inconclusive: 79.4 µM [inhibitor, partial curve, poor fit]
N#Cc1c(/N=C/c2cccs2)sc2c1CCCCC2 | inconclusive: 22.4 µM [inhibitor, single point]
Cc1nn(-c2ccccc2)c(N2CCCC2)c1/C=N/Nc1ccc(S(=O)(=O)Nc2ccccc2)cc1[N+](=O)[O-] | inconclusive: 35.5 µM [inhibitor, partial curve, poor fit]
C/C(=N\O)C(=O)C(CN1CCCCC1)CN1CCCCC1 | inconclusive: 31.6 µM [inhibitor, full curve]
O=C1C(=O)c2ccccc2C(O)=C1c1cccc([N+](=O)[O-])c1 | inconclusive: 31.6 µM [inhibitor, partial curve, poor fit]
NS(=O)(=O)c1ccc(CCNC(=O)Cc2ccc(Cl)cc2)cc1 | inactive
CCN1CCC(O)(/C=C/c2ccc(C)cc2)C(C(=O)/C=C/c2ccc(C)cc2)C1 (configuration not stated) | inconclusive: 28.2 µM [inhibitor, partial curve, poor fit]
O=[N+]([O-])c1ccccc1CN1CCN(Cc2ccccn2)CC1 | inactive
COc1ccc(C2/C=C\CN(Cc3ccc(N(C)C)cc3)CC(=O)N2Cc2ccc(F)cc2)cc1 (configuration not stated) | inconclusive: 25.1 µM [inhibitor, full curve]
CCC1=C(c2ccc(C)cc2)S(=O)(=O)N=C1N1CCC(C(=O)NCc2ccc(N(C)C)cc2)CC1 | inactive
COc1ccc(CNc2nc3ccccc3n2C)c(OC)c1 | inactive
COc1ccc(OCc2ccc(-c3nc(C#N)c(N4CCCCC4)o3)o2)cc1 | inconclusive: 3.16 µM [inhibitor, full curve, poor fit]
COc1ccc2sc(N(CCCN(C)C)C(=O)c3ccc(S(=O)(=O)N4CCCc5ccccc54)cc3)nc2c1 | inconclusive: 31.6 µM [inhibitor, partial curve]
Cc1ccc(S(=O)(=O)/N=C2\C=C(NS(=O)(=O)c3ccccc3)C(=O)c3ccccc32)c(C)c1 | active: 22.4 µM
CCOc1ccc2nc(/N=C/c3c(C)[nH]n(-c4ccccc4)c3=O)sc2c1 | inconclusive: 39.8 µM [inhibitor, single point]
